Measurements published in the supplement of paper PMC8728848.
The list shows a part of the results.

What was measured:
Test in all cases: glycan array binding signal (z-score within array); higher = stronger binding
Details in all cases: glycan notation: IUPAC condensed, linker removed
Gal3S(b1-4)Glc = biological target: Gal3S(b1-4)Glc
In short: (§1)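 Negative Z-scores can be read as non-binding. The Z-score is calculated within each array and then averaged across arrays of one protein sequence at different concentrations or buffers and across linkers. Arrays, 3228 in all, were curated from the Consortium for Functional Glycomics database and kept only where the protein sequence was available.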

Gal3S(b1-4)Glc6S = biological target: Gal3S(b1-4)Glc6S
In short: as §1

Gal3S(b1-4)GlcNAc = biological target: Gal3S(b1-4)GlcNAc
In short: as §1

Gal3S(b1-4)GlcNAc6S = biological target: Gal3S(b1-4)GlcNAc6S
In short: as §1

Gal3S6S(b1-4)GlcNAc = biological target: Gal3S6S(b1-4)GlcNAc
In short: as §1

Gal3S6S(b1-4)GlcNAc6S = biological target: Gal3S6S(b1-4)GlcNAc6S
In short: as §1

Gal4S(b1-4)GlcNAc = biological target: Gal4S(b1-4)GlcNAc
In short: as §1

Gal4S6S(b1-4)GlcNAc = biological target: Gal4S6S(b1-4)GlcNAc
In short: as §1

Gal6S(b1-4)Glc = biological target: Gal6S(b1-4)Glc
In short: as §1

Gal6S(b1-4)Glc6S = biological target: Gal6S(b1-4)Glc6S
In short: as §1

Gal6S(b1-4)GlcNAc = biological target: Gal6S(b1-4)GlcNAc
In short: as §1

GalNAc(a1-3)Gal = biological target: GalNAc(a1-3)Gal
In short: as §1

GalNAc(a1-3)GalNAc = biological target: GalNAc(a1-3)GalNAc
In short: as §1

[1] = biological target: GalNAc(b1-3)Gal(a1-4)Gal(b1-4)GlcNAc
In short: as §1

GalNAc(b1-3)GalNAc = biological target: GalNAc(b1-3)GalNAc
In short: as §1

GalNAc(b1-4)GlcNAc = biological target: GalNAc(b1-4)GlcNAc
In short: as §1

Glc(a1-4)Glc = biological target: Glc(a1-4)Glc
In short: as §1

Glc(a1-6)Glc(a1-6)Glc = biological target: Glc(a1-6)Glc(a1-6)Glc
In short: as §1

Glc(b1-4)Glc = biological target: Glc(b1-4)Glc
In short: as §1

Glc(b1-6)Glc = biological target: Glc(b1-6)Glc
In short: as §1

GlcA(b1-3)Gal = biological target: GlcA(b1-3)Gal
In short: as §1

GlcA(b1-6)Gal = biological target: GlcA(b1-6)Gal
In short: as §1

[2] = biological target: GlcNAc(a1-3)Gal(b1-4)GlcNAc
In short: as §1

[3] = biological target: GlcNAc(a1-6)Gal(b1-4)GlcNAc
In short: as §1

[4] = biological target: GlcNAc(b1-2)Gal(b1-3)GalNAc
In short: as §1

[5] = biological target: GlcNAc(b1-2)Gal(b1-3)GlcNAc
In short: as §1

[6] = biological target: GlcNAc(b1-2)Man(a1-3)[GlcNAc(b1-2)Man(a1-6)]Man(b1-4)GlcNAc(b1-4)GlcNAc
In short: as §1

GlcNAc(b1-3)Gal = biological target: GlcNAc(b1-3)Gal
In short: as §1

[7] = biological target: GlcNAc(b1-3)Gal(b1-3)GalNAc
In short: as §1

GlcNAc(b1-3)Gal(b1-4)Glc = biological target: GlcNAc(b1-3)Gal(b1-4)Glc
In short: as §1

[8] = biological target: GlcNAc(b1-3)Gal(b1-4)GlcNAc
In short: as §1

[9] = biological target: GlcNAc(b1-3)Gal(b1-4)GlcNAc(b1-3)Gal(b1-4)GlcNAc
In short: as §1

GlcNAc(b1-3)GalNAc = biological target: GlcNAc(b1-3)GalNAc
In short: as §1

[10] = biological target: GlcNAc(b1-3)[GlcNAc(b1-4)][GlcNAc(b1-6)]GlcNAc
In short: as §1

[11] = biological target: GlcNAc(b1-3)[GlcNAc(b1-6)]Gal(b1-4)GlcNAc
In short: as §1

[12] = biological target: GlcNAc(b1-3)[GlcNAc(b1-6)]GalNAc
In short: as §1

[13] = biological target: GlcNAc(b1-3)[GlcNAc(b1-6)]GlcNAc
In short: as §1

[14] = biological target: GlcNAc(b1-3)[GlcNAc(b1-6)]GlcNAc(b1-4)GlcNAc
In short: as §1

[15] = biological target: GlcNAc(b1-4)Gal(b1-4)GlcNAc
In short: as §1

[16] = biological target: GlcNAc(b1-4)GlcNAc(b1-4)GlcNAc
In short: as §1

B1: T7P4 (Tuber borchii) (protein)
chain: GSHIGPYMSFYASSEDVRTIEEGGRTWLVGRARRADGSWQDIKLDLDNIIGNRDGHLTWGEQNFTQSASDIRFNFEGSNVPVLRAKLRNAAGGEQESDLNLGERLTNNNGDLVFN
glycan array binding signal (z-score) (Gal3S(b1-4)Glc): -0.008
glycan array binding signal (z-score) (Gal3S(b1-4)Glc6S): -0.219
glycan array binding signal (z-score) (Gal3S(b1-4)GlcNAc): -0.207
glycan array binding signal (z-score) (Gal3S(b1-4)GlcNAc6S): -0.215
glycan array binding signal (z-score) (Gal3S6S(b1-4)GlcNAc): -0.211
glycan array binding signal (z-score) (Gal3S6S(b1-4)GlcNAc6S): -0.218
glycan array binding signal (z-score) (Gal4S(b1-4)GlcNAc): -0.202
glycan array binding signal (z-score) (Gal4S6S(b1-4)GlcNAc): -0.102
glycan array binding signal (z-score) (Gal6S(b1-4)Glc): -0.193
glycan array binding signal (z-score) (Gal6S(b1-4)Glc6S): 0.094
glycan array binding signal (z-score) (Gal6S(b1-4)GlcNAc): -0.215
glycan array binding signal (z-score) (GalNAc(a1-3)Gal): -0.215
glycan array binding signal (z-score) (GalNAc(a1-3)GalNAc): -0.217
glycan array binding signal (z-score) [1]: -0.08
glycan array binding signal (z-score) (GalNAc(b1-3)GalNAc): -0.21
glycan array binding signal (z-score) (GalNAc(b1-4)GlcNAc): -0.125
glycan array binding signal (z-score) (Glc(a1-4)Glc): -0.172
glycan array binding signal (z-score) (Glc(a1-6)Glc(a1-6)Glc): -0.066
glycan array binding signal (z-score) (Glc(b1-4)Glc): -0.193
glycan array binding signal (z-score) (Glc(b1-6)Glc): -0.13
glycan array binding signal (z-score) (GlcA(b1-3)Gal): -0.164
glycan array binding signal (z-score) (GlcA(b1-6)Gal): -0.212
glycan array binding signal (z-score) [2]: -0.221
glycan array binding signal (z-score) [3]: -0.203
glycan array binding signal (z-score) [4]: 0.193
glycan array binding signal (z-score) [5]: 0.204
glycan array binding signal (z-score) [6]: -0.216
glycan array binding signal (z-score) (GlcNAc(b1-3)Gal): -0.22
glycan array binding signal (z-score) [7]: -0.221
glycan array binding signal (z-score) (GlcNAc(b1-3)Gal(b1-4)Glc): -0.121
glycan array binding signal (z-score) [8]: -0.219
glycan array binding signal (z-score) [9]: -0.221
glycan array binding signal (z-score) (GlcNAc(b1-3)GalNAc): -0.221
glycan array binding signal (z-score) [10]: -0.209
glycan array binding signal (z-score) [11]: -0.222
glycan array binding signal (z-score) [12]: -0.22
glycan array binding signal (z-score) [13]: -0.22
glycan array binding signal (z-score) [14]: -0.209
glycan array binding signal (z-score) [15]: -0.219
glycan array binding signal (z-score) [16]: -0.218
